Measurements taken from patent publication US20120114590A1 (priority 2005, published 2012).

Test system: human peripheral blood mononuclear cells
Experiment: Induction of IL-28A, IL-29 and IL-28B RNA by poly I:C (RT-PCR)
Format: cell-based
Conditions: poly I:C 100 μg/ml, 15 h, versus untreated cells
Procedure: After a 15 h incubation, total RNA was isolated from cells and treated with RNase-free DNase.

Question: For “polyinosinic acid-polycytidylic acid [poly I:C]”, which “amount of IL-28A, IL-29, IL-28B RNA” value is on record?
Answer: Its value is “increased”.
